Consider 94 sequences from PMC10668032.

The list shows a part of the results. At the low end of the ranking, values are background and their order means little.

This assay concerns the target SIX1-Q177R homeodomain (UniProt Q15475). The assay can be described thus: universal protein binding microarray. Conditions: Universal all-10-mer PBM (8x60K, AMADID 030236), 300 nM GST-tagged protein, Alexa Fluor 488 anti-GST; buffer, salt, pH and temperature not stated; high values mean tight binding; most listed sequences are background and not binding sites; double strand, one strand shown.
Regarding ACACTTGC, the binding signal stood at 0.363 E-score.

CTCATTGA: the binding signal was -0.136 E-score. Then CACTAATG, with 0.164 E-score; and CAGCTGGA, with -0.093 E-score. The same measure for ATTATAGA: -0.133 E-score. Then AGGCTTTA, with -0.211 E-score.

For the sequence AATCTTGG, the binding signal is -0.133 E-score. Then AGGGCTAC, with 0.0065 E-score. As for GGTTGTCA, the binding signal was found to be 0.0679 E-score.

Take CCGAAACG: the binding signal was -0.0683 E-score. Then ATCTCAAA, with -0.127 E-score.

Turning to ACTCTGTA, the binding signal turned out to be 0.0722 E-score. Then ATCTAGGA, with -0.189 E-score; and TTCCTCAA, with -0.183 E-score. Then GGGTGGGA, with 0.103 E-score; and CAGTAATA, with -0.178 E-score.

For ACAAGTGA, the binding signal was 0.0375 E-score. Regarding AAATTGGG, the binding signal was -0.0601 E-score.

For the sequence GAATAATC, the binding signal was -0.151 E-score. For AAAGCTTT, the binding signal was -0.196 E-score. Turning to TGGCCCAA, the binding signal is -0.263 E-score.

For the sequence AGACAATA, the binding signal is -0.213 E-score. Then GTTACCAA, with -0.106 E-score; and AGCGCACC, with 0.0579 E-score. For the sequence GTTCGTGA, the binding signal came out at 0.0181 E-score. Then ACAAGGGA, with 0.118 E-score; and CGACGAAC, with -0.000705 E-score; and CAAACTGG, with -0.0176 E-score. In the case of GAAATTGC, the binding signal is -0.187 E-score.

Regarding ATATTAGG, the binding signal is -0.00895 E-score. As to AGCGTTGG, the binding signal was 0.0632 E-score. Then CCACGATA, with -0.0696 E-score. CAACTGCA: the binding signal is -0.223 E-score. Then ACCACGTG, with 0.194 E-score; and AAGGATTG, with -0.0352 E-score.

For AGCACAAG, the binding signal was -0.246 E-score. Regarding CCAGAGCC, the binding signal was -0.142 E-score. Turning to ATCCTTAG, the binding signal was 0.161 E-score. The same measure for CGTAAGGC: -0.0824 E-score. The same measure for AATGCAGC: -0.324 E-score; for AAACATGA: -0.115 E-score. Then AGCCCGCG, with -0.0901 E-score; and GTTTAACA, with 0.0476 E-score. CAGCACAG: the binding signal was -0.0886 E-score. As to GTACCAGA, the binding signal is 0.0666 E-score.

With AGTCCCAG, the binding signal is -0.141 E-score. The same measure for AAGTGCCA: 0.0942 E-score; for CAGTGCAA: 0.0576 E-score; for AGCGGCGC: -0.0366 E-score. The same measure for CCACGCGG: -0.147 E-score; for CCTGGCAA: -0.0799 E-score; for ATCACTAA: 0.00347 E-score. On to CATTCGCA, for which the binding signal was -0.102 E-score. In the case of ATCCTGTA, the binding signal is -0.0936 E-score.

For the sequence AGTAGTCC, the binding signal was -0.141 E-score. Regarding ACTACAAG, the binding signal came to 0.025 E-score. On to GGTATATA, for which the binding signal was 0.191 E-score. Then CCCAGACC, with -0.009 E-score; and ATTTTGCC, with -0.132 E-score; and TATGGACA, with 0.167 E-score.

For the sequence GCTTATAA, the binding signal was -0.286 E-score.

For the sequence TAATTTAA, the binding signal was -0.0893 E-score. Then AATCAATC, with 0.00158 E-score; and CCAGATGC, with -0.0185 E-score. ACGTTACG: the binding signal is -0.168 E-score. Regarding ACCGGAAG, the binding signal is -0.0455 E-score. The same measure for GCTCGTCA: -0.0289 E-score.

For CAGTTGAA, the binding signal was -0.0659 E-score. In the case of AAGGGCAG, the binding signal was -0.185 E-score. As for ATGTCCGC, the binding signal was -0.206 E-score. Regarding ATATCCTG, the binding signal stood at 0.142 E-score. The same measure for AAATCATT: -0.264 E-score. Take TCATATCA: the binding signal is -0.109 E-score.

With ATGGGCTA, the binding signal was -0.16 E-score. Then ACCCCGAT, with 0.229 E-score. Take CAGATGGG: the binding signal is -0.105 E-score.

GCGCGTGA: the binding signal was -0.0383 E-score.

As to ACGAAGTG, the binding signal stood at 0.0901 E-score. For GGCCTGCA, the binding signal was -0.217 E-score. TGGCGTAA: the binding signal turned out to be 0.0397 E-score. Regarding ATGGCTCA, the binding signal is -0.136 E-score. Then ACCAGCGG, with 0.0195 E-score; and CCTGGGCA, with -0.0856 E-score. Then GGGGACAC, with 0.41 E-score; and CTCCTTAC, with 0.0451 E-score. The same measure for AGGACATC: -0.254 E-score; for AGAGCTAA: -0.27 E-score.

Consider AAACTCGC, for which the binding signal was -0.104 E-score.

In the case of CGTAGGTA, the binding signal was 0.209 E-score. GCGTGTTA: the binding signal was found to be 0.387 E-score.

On to GAGGCGCA, for which the binding signal is -0.0558 E-score.

TAATCCCA: the binding signal stood at 0.119 E-score. Then AGACGAAT, with -0.152 E-score; and GCTAGGAC, with 0.0111 E-score.
